Assay results as given in PubChem BioAssay AID2147 (National Center for Advancing Translational Sciences (NCATS), 2009).
Out of some 230,000 compounds screened, about 3,600 (1.6%) were called active. The inconclusive results got no clear call from the source; some entries with a clear call stand among them for comparison. Calls come from the whole dose curve; as a rule, active = well fitted inhibition curve with a large enough effect (not every such curve was filed as active); inconclusive = small, poorly fitted or top-dose-only effect, or another doubt; inactive = no such curve, though single readings can be large or run the other way. Potencies beside an inconclusive call are fits to weak or partial responses and may not hold up.

biological target: Lysine-specific demethylase 4E (Homo sapiens) (UniProt B2RXH2); test: qHTS Assay for Inhibitors of Human Jumonji Domain Containing 2E (JMJD2E); conditions: JMJD2E catalytic domain, FDH-coupled NADH fluorescence (FDH is formaldehyde dehydrogenase); series mostly up to 57.1 µM
Note: nearly all actives have a fitted effect of over 50% in size.
Potency is the fitted concentration of half-maximal effect; tags give direction and shape of the fitted curve.

Sequence of UniProt B2RXH2 (B2RXH2 whole entry, looked up, the tested form may be a part): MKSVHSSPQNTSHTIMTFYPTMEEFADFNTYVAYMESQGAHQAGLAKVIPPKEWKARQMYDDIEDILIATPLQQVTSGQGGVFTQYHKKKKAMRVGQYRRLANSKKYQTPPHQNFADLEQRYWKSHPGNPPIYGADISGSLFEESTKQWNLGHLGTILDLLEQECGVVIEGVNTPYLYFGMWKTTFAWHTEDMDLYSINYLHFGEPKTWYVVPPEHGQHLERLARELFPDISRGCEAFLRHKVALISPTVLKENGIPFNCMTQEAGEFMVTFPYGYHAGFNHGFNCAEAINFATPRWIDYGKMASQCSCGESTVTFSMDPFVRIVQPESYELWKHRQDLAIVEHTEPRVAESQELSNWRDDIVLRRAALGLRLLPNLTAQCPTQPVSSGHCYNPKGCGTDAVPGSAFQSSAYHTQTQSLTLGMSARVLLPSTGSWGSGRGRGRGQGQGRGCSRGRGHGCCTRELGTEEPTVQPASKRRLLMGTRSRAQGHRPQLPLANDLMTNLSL

SMILES	Potency
CCOC(=O)c1cn2nc(Oc3ccc(C(=O)OC)cc3)ccc2n1	inconclusive: 22.4 µM [inhibitor, partial curve]
CCC(c1nnnn1Cc1ccco1)N(CCc1ccccc1)Cc1cc2ccc(OC)cc2[nH]c1=O (stereo unspecified)	inconclusive: 39.8 µM [inhibitor, single point]
c1ccc(-n2ncc3c(NC4CCCCCC4)ncnc32)cc1	inconclusive: 39.8 µM [inhibitor, single point]
O=C(NC(Cc1ccccc1)C(=O)O)c1ccccc1 (stereo unspecified)	inconclusive: 39.8 µM [inhibitor, single point]
COc1ccc(C(=O)CCN2CCc3cc(OC)c(OC)cc3C2)cc1	inactive
O=C1CSC(=S)N1/N=C/c1ccc(Cl)c([N+](=O)[O-])c1	inactive
Cc1csc2ncc(C(=O)Nc3ccccc3Cl)c(=O)n12	inconclusive: 8.91 µM [inhibitor, single point]
O=c1c2ccccc2nc(-c2cccc(Cl)c2)n1O	inconclusive: 39.8 µM [inhibitor, single point]
CC1(C)Cc2ccccc2C(=O)N1	inactive
COc1ccc(NC(=O)CSC2=C(C#N)C(c3ccco3)C3=C(CCCC3=O)N2)c(OC)c1 (stereo unspecified)	inconclusive: 39.8 µM [inhibitor, single point]
Cc1ccc2nc(N3CCN(c4cccc(C)c4C)CC3)c3nnnn3c2c1	active: 3.55 µM
N#Cc1c(N)oc(-c2ccc3c(c2)OCO3)c1-c1ccc2c(c1)OCO2	inconclusive: 35.5 µM [inhibitor, single point]
CCN(CC)C(=O)CSc1ncnc2c(-c3ccc(OC)cc3)nsc12	inconclusive: 4.47 µM [inhibitor, full curve]
CCN(CC)CCCN(Cc1cc2cc3c(cc2[nH]c1=O)OCCO3)C(=O)Nc1ccccc1	inconclusive: 31.6 µM [inhibitor, partial curve]
Cc1ccc(C)c(C(=O)COC(=O)c2ccc(Br)o2)c1	inactive
CC(=O)N(c1cccc(C)c1)C1SC(=O)N(c2ccccc2)C1=O (stereo unspecified)	inactive
CCC1=C2CC[C@H]3C(=O)N(C)C(=O)[C@H]3[C@H]2[C@@]2(C)C(=NCc3ccccc3)OC(=O)N2C1=O	inactive
Cc1cc(Cl)ccc1-n1c(-c2cccnc2)n[nH]c1=S	inactive
CC(/C=N/n1c(COc2ccccc2)n[nH]c1=S)=C\c1ccccc1	inactive
Cc1ccccc1Nc1nc(-c2sc(NC(=O)c3ccco3)nc2C)cs1	inactive
C=CCNC(=O)CNS(=O)(=O)c1ccc(F)cc1	inactive
COc1cc(OC)cc(C(=O)Nc2cccc(N3CCCC3)c2)c1	inactive
Oc1ccc(Br)cc1-c1cc(-c2ccccc2F)[nH]n1	inactive
Cc1ccc(Nc2nnc(SC/C(O)=C(\C#N)c3nc4ccccc4[nH]3)s2)c(C)c1	inconclusive: 14.1 µM [inhibitor, partial curve]
CCC1CCCCN1C(=O)CNCC1CCCO1 (stereo unspecified)	inconclusive: 28.2 µM [inhibitor, single point]
CN(C(=O)Cn1nnc(-c2cccc(C(F)(F)F)c2)n1)C1CCCCC1	inactive

SMILES	Potency
CCSc1nnc(NC(=O)C(CC)(C(F)(F)F)C(F)(F)F)s1	inactive
CN(Cc1ccco1)c1ncnc2ccc(-c3ccc4c(c3)OCO4)cc12	inconclusive: 25.1 µM [inhibitor, partial curve]
O=C(Nc1ccon1)c1csc2ccccc12	inactive
O=C(CCSc1ccc(Cl)cc1)Nc1cccnc1	inactive
COc1ccc(-n2nnnc2SCC(=O)N2CCCc3ccccc32)cc1OC	inactive
Cc1ccc2sc(NNC(=O)C3COc4ccccc4O3)nc2c1C (stereo unspecified)	inconclusive: 31.6 µM [inhibitor, single point]
COc1ccc(C(=O)NNC(=S)NC(=O)c2ccco2)cc1	inactive
COCCOC(=O)C1=C(C)NC2=C(C(=O)CC(C)(C)C2)C1c1ccc(N(C)C)cc1 (stereo unspecified)	inconclusive: 39.8 µM [inhibitor, single point]
CCCC(=O)Nc1ccc(C(=O)NNC(=O)c2ccco2)cc1	inconclusive: 35.5 µM [inhibitor, single point]
COc1cc(NC(=O)c2nccn2C)cc(C(=O)Nc2cccc(C(F)(F)F)c2)c1	inconclusive: 28.2 µM [inhibitor, partial curve]
CCn1c(SCC(=O)Nc2ccc(S(=O)(=O)Nc3ccccn3)cc2)nnc1-c1ccncc1	inconclusive: 28.2 µM [inhibitor, partial curve]
CCN(CC)S(=O)(=O)c1ccc(NS(=O)(=O)c2ccc(O)c([N+](=O)[O-])c2)cc1	inactive
COc1ccc(OCCOCCOc2ccc(C)cc2[N+](=O)[O-])cc1	inactive
O=C(c1ccco1)N1CCN(C(=O)c2sccc2-c2ccccc2)CC1	inactive
O=C(N/N=C/c1ccc[nH]1)c1ccccc1OCc1ccccc1Cl	inconclusive: 10 µM [inhibitor, partial curve]
O=C(NCc1csc(-c2cccs2)n1)c1ccccc1	inconclusive: 22.4 µM [inhibitor, partial curve]
O=C1c2ccc(Oc3ccc4c(c3)C(=O)N(CCCCO)C4=O)cc2C(=O)N1CCCCO	inconclusive: 11.2 µM [inhibitor, partial curve]
O=C(O)c1cccc([N+](=O)[O-])c1C(=O)Nc1nc2ccccc2s1	inconclusive: 31.6 µM [inhibitor, single point]
COc1ccc(-c2nc(CSCC(=O)N3CCC(C(N)=O)CC3)c(C)o2)cc1OC	inconclusive: 31.6 µM [inhibitor, partial curve]
COC(=O)c1cc(OC)c(OC)cc1NCC(=O)Nc1ccc(C)cc1	inconclusive: 31.6 µM [inhibitor, partial curve]
Cc1ccc(N2C(=O)c3cccc4c(C(=O)O)ccc(c34)C2=O)cc1	inconclusive: 35.5 µM [inhibitor, partial curve]
CCc1cccc2c1NC(=O)C21N2CCCC2C(C(=O)c2ccc3ccccc3c2)C12C(=O)Nc1ccccc12 (stereo unspecified)	inconclusive: 39.8 µM [inhibitor, single point]
CC(C)Cc1nc(N2CCN(C(=O)Cc3ccccc3)CC2)c(C#N)c2c1COC(C)(C)C2	inconclusive: 39.8 µM [inhibitor, single point]
Cc1ccc(NP(=O)(Nc2ccc(C)cc2)Nc2ccc(C)cc2)cc1	inactive
COc1ccc(-c2[nH]ncc2CN2CCC(c3ccncc3)CC2)cc1F	inactive
CC1C(=O)NN=C1C(=O)N/N=C\c1ccc(O)cc1O (stereo unspecified)	active: 22.4 µM

SMILES	Potency
Cc1ccccc1OCCNc1cc(N2CCNCC2)ccc1[N+](=O)[O-]	inactive
O=C(CSc1nnnn1C1CCCC1)Nc1cccc(NC(=O)c2ccco2)c1	inactive
CN(C)CCCOc1cccc(Cl)c1	inconclusive: 35.5 µM [inhibitor, single point]
CCCN1C(=O)/C(=C/C=C2\N(CC)c3ccccc3C2(C)C)SC1=S	inactive
COc1cc(/C=N/Nc2ccc(C(=O)O)cc2)ccc1O	inconclusive: 28.2 µM [inhibitor, single point]
COc1cc(OC)c(-c2c3cc(O)c(=O)cc-3oc3cc(O)c(O)cc23)cc1OC	active: 5.01 µM
Cc1cc(NC(=O)CCN2C(=O)C3C4C=CC(C4)C3C2=O)ccc1Br (stereo unspecified)	inactive
COc1ccc2oc(=N)c(C(=O)Nc3ccccc3)cc2c1	inconclusive: 25.1 µM [inhibitor, single point]
CSc1sc(C(=O)NC(=O)NCc2ccncc2)c(C)c1-c1ccon1	inconclusive: 28.2 µM [inhibitor, partial curve]
CN1CCCN(CC(O)COCc2cccs2)CC1 (stereo unspecified)	inconclusive: 39.8 µM [inhibitor, single point]
CC(C)(C)C1CCC(=NNS(=O)(=O)c2ccc(Br)cc2)CC1 (stereo unspecified)	inactive
CCCC[n+]1ccn(-c2nc3ccccc3nc2[N-]S(=O)(=O)c2ccc(Br)cc2)c1	inconclusive: 8.91 µM [inhibitor, partial curve]
CC(C)(C)c1nnc(NC(=O)c2cc(-c3ccccc3)nc3ccccc23)s1	inconclusive: 35.5 µM [inhibitor, single point]
O=C(CSCc1c(F)cccc1Cl)NCCSCc1ccco1	inactive
COc1ccccc1N1CCN(C(=O)CNC(=O)c2cn(-c3ccccc3OC)c(=O)c3ccccc23)CC1	inconclusive: 39.8 µM [inhibitor, single point]
COc1ccc2cc(C(=O)Nc3ccccc3)sc(=O)c2c1OC	inconclusive: 25.1 µM [inhibitor, partial curve]
COc1ccc(-c2csc(NC(=S)NC(=O)c3cccs3)n2)cc1Br	inactive
Cn1nnnc1N=N/C(=N/Nc1ccccc1)c1ccccc1	inconclusive: 25.1 µM [inhibitor, single point]
COc1ccc(NC(=O)CSc2nncc3ccccc23)cc1	inactive
CC(C)(C)Nc1nc(SCC(=O)Nc2ccccc2)nc(N2CCOCC2)n1	inactive
Cc1ccc(S(=O)(=O)N/N=C/c2cc([N+](=O)[O-])ccc2O)cc1[N+](=O)[O-]	inactive
CC(C)N(Cc1cc2ccccc2[nH]c1=O)C(=O)c1ccco1	inconclusive: 35.5 µM [inhibitor, single point]
COc1ccc(C(=O)N/N=C(\c2ccccc2)c2ccccn2)cc1	inconclusive: 35.5 µM [inhibitor, single point]
CCCCn1c2c(c(=N)c3ccccc31)CCC2	inconclusive: 28.2 µM [inhibitor, single point]
